The list shows a part of the results.
Test system: HepG2
Test: cytotoxicity call (relative viability < 0.9)
Conditions: 10 µM

SMILES | cytotoxicity call
COc1ccc(NC(=O)N(C)C[C@H]2Oc3ccc(NS(=O)(=O)c4c(C)noc4C)cc3CC(=O)N([C@H](C)CO)C[C@@H]2C)cc1 | inactive
C[C@@H]1CN([C@@H](C)CO)C(=O)c2cc(NS(=O)(=O)c3ccc(Cl)cc3)ccc2O[C@@H](C)CCCCO[C@@H]1CN(C)Cc1ccc(C(=O)O)cc1 | inactive
C=C1C(=O)C(O)[C@H]2O[C@H]2C1=O (stereo not given in full) | inactive
C[C@H](CO)N1C[C@H](C)[C@H](CN(C)S(=O)(=O)c2cn(C)cn2)Oc2c(NC(=O)CCCCCC(=O)Nc3ccccc3N)cccc2C1=O | inactive
O=C(CN1CCOCC1)NCC[C@H]1CC[C@@H](NC(=O)c2ccc3c(c2)OCO3)[C@H](CO)O1 | inactive
Nc1ncc(O)cn1 | inactive
C[C@H](CO)N1C[C@H](C)[C@@H](CN(C)Cc2ccc(Cl)c(Cl)c2)Oc2c(NC(=O)CCCCCC(=O)Nc3ccccc3N)cccc2C1=O | inactive
COCC(=O)N1C[C@@H](C)[C@@H](OC)CN(C)C(=O)c2cc(NC(=O)c3ccc(OC)cc3)ccc2OC[C@@H]1C | inactive
Cc1noc(C)c1NC(=O)Nc1ccc2c(c1)C(=O)N([C@H](C)CO)C[C@@H](C)[C@H](CN(C)C(=O)Nc1ccc(C(F)(F)F)cc1)O2 | inactive
C/C=C/c1ccc2c(c1)O[C@H](CN(C)Cc1ccc(C(=O)O)cc1)[C@H](C)CN([C@H](C)CO)S2(=O)=O | inactive
COc1cc(O)c2c(=O)c(O)c(-c3ccccc3)oc2c1 | inactive
O=C(O)/C=C/C(=O)N1CCN(C(=O)/C=C/C(=O)O)CC1 | inactive
CCCNC(=O)N1C[C@H](O)COC[C@H]2O[C@@H](CC(=O)NCc3ccncn3)CC[C@@H]21 | inactive
CN(C)C(=O)N1CC2(CCN(S(=O)(=O)N(C)C)CC2)[C@]2(CCN(C)C2=O)C1 | inactive
CN(C)C(=O)C[C@@H]1C=C[C@@H](NC(=O)C2CC2)[C@@H](CO)O1 | inactive
C[C@@H]1CN([C@H](C)CO)C(=O)c2cccc(NC(=O)Nc3ccccc3)c2O[C@H]1CN(C)CC1CCCCC1 | inactive
C[C@H]1CCCCO[C@H](CN(C)Cc2ccc(C(F)(F)F)cc2)[C@@H](C)CN([C@@H](C)CO)C(=O)c2cc(NC(=O)c3ccccc3)ccc2O1 | inactive
C[C@@H]1CN([C@@H](C)CO)C(=O)c2cccc(N(C)C)c2O[C@@H]1CN(C)S(=O)(=O)c1ccc(Cl)cc1 | inactive
C[C@@H]1CN([C@H](C)CO)C(=O)c2cccc(NS(C)(=O)=O)c2O[C@H]1CN(C)S(=O)(=O)c1ccc(F)cc1 | inactive
CCOC(=O)Cn1cccc2oc(=O)nc1-2 | inactive

SMILES | cytotoxicity call
COC(=O)Nc1nc2ccc(Sc3ccccc3)cc2[nH]1 | active
O=C(NCC[C@H]1CC[C@H](NS(=O)(=O)c2cccc(F)c2)[C@H](CO)O1)C1CC1 | inactive
O=C(NO)c1ccc(C(=O)N/N=C/[C@H](O)[C@@H](O)[C@@H](O)[C@H](O)C(=O)O)cc1 | inactive
C[C@@H]1CN([C@H](C)CO)S(=O)(=O)c2ccc(-c3cncnc3)cc2O[C@H]1CN(C)C(=O)Cc1ccncc1 | inactive
Cc1noc(C)c1NC(=O)N(C)C[C@H]1OCCCC[C@@H](C)Oc2ccc(NS(=O)(=O)c3ccc(F)cc3)cc2C(=O)N([C@H](C)CO)C[C@@H]1C | inactive
O=C(C[C@@H]1C[C@H]2c3cc(NS(=O)(=O)c4ccc(F)cc4)ccc3O[C@H]2[C@@H](CO)O1)N1CCCCC1 | inactive
C[C@@H]1CN([C@H](C)CO)C(=O)c2cc(NS(C)(=O)=O)ccc2O[C@@H]1CN(C)S(=O)(=O)c1cccs1 | inactive
C[C@H](CO)N1C[C@H](C)[C@H](CN(C)Cc2ccc(-c3ccccc3)cc2)Oc2c(NC(=O)Nc3cccc4ccccc34)cccc2C1=O | inactive
C[C@@H]1CN([C@H](C)CO)C(=O)Cc2cc(NC(=O)Nc3ccccc3)ccc2O[C@@H]1CN(C)Cc1ccc(Cl)c(Cl)c1 | active
O=C(CN1CCOCC1)NCC[C@H]1CC[C@@H](NC(=O)c2ccccc2F)[C@H](CO)O1 | inactive
CC(C)NC(=O)N(C)C[C@@H]1Oc2c(NS(=O)(=O)c3ccc(Cl)cc3)cccc2C(=O)N([C@H](C)CO)C[C@H]1C | inactive
COc1ccc(CN(C)C[C@@H]2OCCCC[C@@H](C)Oc3ccc(NC(=O)c4ccncc4)cc3C(=O)N([C@@H](C)CO)C[C@@H]2C)cc1 | inactive
CNC[C@@H]1OCCCC[C@H](C)Oc2ccc(NC(=O)Nc3ccc(C(F)(F)F)cc3)cc2C(=O)N([C@H](C)CO)C[C@H]1C | inactive
C[C@H]1CN([C@@H](C)CO)C(=O)c2cc(NC(=O)CCN3CCOCC3)ccc2O[C@@H]1CN(C)Cc1ccc2c(c1)OCO2 | inactive
Cc1ccc(S(=O)(=O)N(C)C[C@@H]2Oc3c(NS(=O)(=O)c4cccs4)cccc3C(=O)N([C@H](C)CO)C[C@@H]2C)cc1 | active
C[C@@H]1CCCCO[C@H](CN(C)Cc2ccncc2)[C@@H](C)CN([C@@H](C)CO)C(=O)c2cc(NC(=O)Nc3cccc4ccccc34)ccc2O1 | inactive
C[C@@H]1CN([C@H](C)CO)S(=O)(=O)c2ccc(C#Cc3ccncc3)cc2O[C@@H]1CN(C)C(=O)C1CCCCC1 | active
COc1ccc(S(=O)(=O)N2C[C@H](O)COC[C@@H]3O[C@@H](CC(=O)N[C@@H]4CCN(Cc5ccccc5)C4)CC[C@H]32)cc1 | inactive
Cc1noc(C)c1NC(=O)Nc1ccc2c(c1)C(=O)N([C@@H](C)CO)C[C@@H](C)[C@@H](CN(C)Cc1ccccc1)OCCCC[C@@H](C)O2 | inactive
C[C@H]1CN([C@@H](C)CO)C(=O)c2cc(NC(=O)CCCN(C)C)ccc2O[C@H]1CN(C)Cc1ccc(C(=O)O)cc1 | inactive

Source: the antibiotic and cytotoxicity screens of Wong et al. (2023)
